The text below walks through data of article PMC2442059.

Protein sequences, listed by entry. Tags and fused reporters are not part of them. Residues count along the entry.
UniProt P09055, residues 21-798: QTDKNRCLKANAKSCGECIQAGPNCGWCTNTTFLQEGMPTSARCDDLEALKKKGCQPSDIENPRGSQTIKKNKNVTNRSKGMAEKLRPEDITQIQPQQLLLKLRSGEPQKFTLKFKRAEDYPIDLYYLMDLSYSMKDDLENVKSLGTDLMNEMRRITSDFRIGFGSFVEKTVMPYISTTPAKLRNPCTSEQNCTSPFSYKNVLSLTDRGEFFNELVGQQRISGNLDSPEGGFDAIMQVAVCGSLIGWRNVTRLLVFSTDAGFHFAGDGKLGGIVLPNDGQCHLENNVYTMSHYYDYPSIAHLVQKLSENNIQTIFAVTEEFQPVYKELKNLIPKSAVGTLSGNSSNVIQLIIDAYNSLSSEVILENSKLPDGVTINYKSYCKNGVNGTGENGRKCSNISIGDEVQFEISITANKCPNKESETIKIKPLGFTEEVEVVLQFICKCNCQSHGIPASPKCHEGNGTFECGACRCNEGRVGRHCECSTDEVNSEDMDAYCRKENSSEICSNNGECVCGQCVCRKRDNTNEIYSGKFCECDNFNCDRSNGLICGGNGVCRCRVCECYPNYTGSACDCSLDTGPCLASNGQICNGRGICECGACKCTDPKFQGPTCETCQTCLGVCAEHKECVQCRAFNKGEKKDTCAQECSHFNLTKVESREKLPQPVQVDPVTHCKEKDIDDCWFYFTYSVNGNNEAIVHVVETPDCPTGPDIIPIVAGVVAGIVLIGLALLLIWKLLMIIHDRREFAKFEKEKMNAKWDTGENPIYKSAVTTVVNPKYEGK

The assay addresses FLAG-tagged murine Integrin β1 (mouse) (UniProt P09055). Kind of assay: co-IP; CHO cells transiently co-transfected, lysed after 48 h in 1% NP-40 STEN buffer (150 mM NaCl, 50 mM Tris, 2 mM EDTA); immunoprecipitated with M2 anti-FLAG agarose; western blot. Background: In western blotting, separated proteins are transferred to a membrane and probed.

No constants are given. Whether binding was seen depends on the method and setting. In cells and extracts the contact can be indirect. Some entries that bind do so weakly or less than the wild type.

B1: APLP1 (protein, UniProt P51693 39-650)
chain: SLAGGSPGAAEAPGSAQVAGLCGRLTLHRDLRTGRWEPDPQRSRRCLRDPQRVLEYCRQMYPELQIARVEQATQAIPMERWCGGSRSGSCAHPHHQVVPFRCLPGEFVSEALLVPEGCRFLHQERMDQCESSTRRHQEAQEACSSQGLILHGSGMLLPCGSDRFRGVEYVCCPPPGTPDPSGTAVGDPSTRSWPPGSRVEGAEDEEEEESFPQPVDDYFVEPPQAEEEEETVPPPSSHTLAVVGKVTPTPRPTDGVDIYFGMPGEISEHEGFLRAKMDLEERRMRQINEVMREWAMADNQSKNLPKADRQALNEHFQSILQTLEEQVSGERQRLVETHATRVIALINDQRRAALEGFLAALQADPPQAERVLLALRRYLRAEQKEQRHTLRHYQHVAAVDPEKAQQMRFQVHTHLQVIEERVNQSLGLLDQNPHLAQELRPQIQELLHSEHLGPSELEAPAPGGSSEDKGGLQPPDSKDDTPMTLPKGSTEQDAASPEKEKMNPLEQYERKVNASVPRGFPFHSSEIQRDELAPAGTGVSREAVSGLLIMGAGGGSLIVLSMLLLRRKKPYGAISHGVVEVDPMLTLEEQQLRELQRHGYENPTYRFLEERP
On to B1, for which the binding result is “binds”.
